In all, about 33,000 sequences were measured (“E-score (-0.5 to 0.5)”: median about -0.01, highest 2% from about 0.26 on). This is one part of the list.
Target: Ste12 (UniProt P13574)
Test: PBM E-score (8-mer binding enrichment) (E-score (-0.5 to 0.5)); higher = stronger / more preferred TF binding; most listed sequences are background and not binding sites
Conditions: protein concentration: 200 nM; construct: GST-DNA-binding domain
Method in brief: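 E-scores (a modified Wilcoxon-Mann-Whitney statistic) were assigned by the Universal PBM Analysis Suite to every ungapped eight-base word pooled with its reverse complement. The input came from universal all-10-mer Agilent arrays made double-stranded by primer extension and probed with GST-tagged yeast transcription factors at about 100-200 nM. Fluorescent anti-GST detected bound protein, and masliner normalised the scans.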

Row | Sequence | PBM E-score
1 | GGCCTCGA | -0.0449
2 | AGCTCCAA | 0.0117
3 | CAACGTTA | 0.0893
4 | GACGGGGC | 0.105
5 | AATTCACA | 0.113
6 | CTACACAC | -0.0103
7 | AATAAGCG | 0.0163
8 | CCCGTAGC | -0.258
9 | ATACTATG | 0.11
10 | ACATGCTG | -0.141
11 | GGGGGCCA | -0.242
12 | ATTACTAA | 0.143
13 | ACCCATTC | 0.0137
14 | CGTGCAGC | 0.0121
15 | ATAATGGA | 0.132
16 | ACACAACC | 0.0246
17 | GTCAGAAA | 0.179
18 | CATGATTC | 0.023
19 | GGCAAGTA | 0.044
20 | AATAAAAC | 0.245
21 | CCTAGGCG | -0.165
22 | TTACTAAA | 0.186
23 | GTATTCCA | 0.0531
24 | CGAAGTGC | 0.0362
25 | CACACGCG | 0.186

Row | Sequence | PBM E-score
26 | CCGGACGA | -0.0191
27 | CCTTCAGA | -0.125
28 | AGCGCTAG | -0.0146
29 | CTACCTCA | 0.123
30 | CATGTCCG | -0.234
31 | ACGCAAGG | -0.151
32 | AGACCGGG | -0.133
33 | CCCGGGCA | 0.118
34 | CTCGAATC | -0.0397
35 | TACCGGCA | -0.0901
36 | AGGGTTGA | 0.0511
37 | AAATCCTT | -0.063
38 | CACCGGTC | -0.171
39 | CAGTAGGA | -0.0478
40 | ATAACAGA | 0.115
41 | ACCGACTG | -0.132
42 | AACAAAAC | 0.236
43 | CCCGTTCC | -0.0483
44 | AAACTTAA | 0.298
45 | AGTTAGGG | -0.121
46 | GAGTCCCA | 0.00079
47 | ATTACGAC | 0.0587
48 | ACACAAGA | 0.182
49 | CACAAACA | 0.107
50 | CTACATTA | 0.0935

Row | Sequence | PBM E-score
51 | AGAACACC | 0.00242
52 | CCATTAGA | -0.125
53 | ATCTAATG | 0.0365
54 | ATGTTAGG | 0.133
55 | AGAAGTCT | -0.197
56 | GAGATTCC | 0.134
57 | AATCTTCC | -0.0551
58 | AGATTTGA | 0.226
59 | GCGCCCTA | -0.12
60 | ATCTTTCA | 0.202
61 | AGTCTTGC | -0.158
62 | GGGGTTCA | -0.0134
63 | AGTCCAAC | -0.22
64 | AATAAGTA | 0.132
65 | CCGGTCGC | -0.0319
66 | GCCCAGAC | -0.161
67 | CCTGAAAA | 0.0508
68 | ATAGTGAT | -0.019
69 | GTGTACGA | -0.116
70 | ACAAGCAC | -0.0849
71 | AAAAAGTG | 0.195
72 | AAGTGTAG | 0.0553
73 | CGGTCCGA | -0.0887
74 | ACTCTTAC | 0.0185
75 | AATTGAAG | 0.07

Row | Sequence | PBM E-score
76 | AGAAGCGC | 0.0778
77 | ACTAGGAG | -0.0207
78 | TAGAAAGA | 0.0083
79 | AATAGGAG | -0.148
80 | GACGCAGC | -0.258
81 | GCCGTGGA | -0.0955
82 | CATTTATA | 0.189
83 | CGACACTA | 0.0711
84 | AGAACAAC | -0.0745
85 | CTGGTTCA | -0.0394
86 | CATACCCA | 0.0548
87 | AGGGGACG | -0.0137
88 | AAGCCCTT | -0.252
89 | GGGATCAA | 0.0375
90 | GACGGACA | -0.0913
91 | AGCCTTAT | 0.0824
92 | GAGAGAGC | -0.13
93 | CGGCCGAA | 0.00393
94 | CGGTGGAG | 0.0491
95 | CTCAAGCC | -0.11
96 | AGCATACA | 0.0213
97 | GGTAGCAC | -0.365
98 | GTTTCGGA | 0.334
99 | GAATGCGA | 0.0116
100 | CTATCCAG | -0.13

Row | Sequence | PBM E-score
101 | AGTAGCTA | 0.0841
102 | CCTCCCAG | -0.0668
103 | CACAACGC | 0.0782
104 | AGGCCGTG | -0.0524
105 | AAGTAATT | 0.136
106 | ATTATTTC | 0.25
107 | ACCCTCAA | -0.0731
108 | GGGACCCA | -0.0901
109 | AATTTCCG | 0.211
110 | ATATCAGG | -0.0467
111 | ATCCTTGA | -0.117
112 | CGAGATGC | -0.0585
113 | CACGCGCA | -0.0337
114 | AATAGCTG | -0.184
115 | GGTGGGAA | 0.127
116 | CCTCCGCC | -0.109
117 | ATTTCAAA | 0.272
118 | ACGACTGA | -0.0689
119 | AGTAGGCG | -0.256
120 | CTATAGTA | -0.0984
121 | CAACTCGA | 0.0314
122 | TGAAACCA | 0.438
123 | CGCCATGA | -0.06
124 | TACTGTAA | 0.0391
125 | ATTGTCTC | 0.0736

Row | Sequence | PBM E-score
126 | AACCCCTG | -0.0957
127 | TTCGCAAA | 0.191
128 | GCAACGAA | 0.0929
129 | ATCTAAAC | 0.127
130 | AAGGTCTC | -0.0597
131 | AGAATATC | 0.00795
132 | ACGAACGA | -0.0257
133 | AGTTGATC | 0.0522
134 | ACTGCCAA | 0.0998
135 | AGGAGAAT | -0.0103
136 | AGACATGG | -0.0301
137 | GTTTGTGA | 0.0106
138 | CGTCATGC | -0.0786
139 | ATCAATGG | -0.0615
140 | AACTGAGC | -0.1
141 | CCGATAGG | -0.0559
142 | AGACGTGA | 0.0132
143 | CCCAGCGC | -0.221
144 | AATTGCAA | 0.101
145 | CATGCGCC | -0.0842
146 | AGTTCATG | 0.106
147 | CAATCAGC | -0.129
148 | AACAGGTT | 0.0874
149 | ATGACGTC | -0.0322
150 | AATTGATG | 0.211

Row | Sequence | PBM E-score
151 | ACTGGCAT | -0.178
152 | CAATTATG | 0.0688
153 | ACGCATAT | 0.0405
154 | CACACCTA | -0.083
155 | CGGGGCCA | -0.00818
156 | ATATTGAT | 0.248
157 | AATCCCAA | 0.148
158 | ATCAAACA | 0.27
159 | CCTCGTTC | 0.00191
160 | TATTACGA | 0.107
161 | TTTCGAAA | 0.192
162 | ATTAGACA | -0.0414
163 | ACGGAGAT | -0.112
164 | AAATTAAC | 0.166
165 | AGCCGATG | -0.171
166 | AGGTACTG | -0.135
167 | GGGACCAC | -0.0322
168 | CTGCCACC | -0.0158
169 | ACAAGCGC | 0.0675
170 | ACCGAATC | 0.0598
171 | CAGTCGCA | -0.0488
172 | ACGCATCT | -0.155

From the supplement of paper PMC3334620
